# Whole data set: some 2,900 compounds, median “NF-kB SEAP reporter activity, fold change vs agonist alone” near 0.99, cut for the highest 2% near 2.6. Some of the results follow.
# Tests used:
# RAW-Dual [1] = experiment: NF-kB SEAP reporter activity, fold change vs agonist alone; higher = enhanced NF-kB activity
# In short: (§1)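 RAW-Dual macrophages were seeded in DMEM at 50,000 cells/well in 384-well plates, given 50 nL of library stock by pin tool, and given a PRR agonist 1 h later. Plates were held at 37 °C, 5% CO2 for 20 hours, after which supernatant was read for IRF by QuantiLuc luminescence and for NF-κB by QuantiBlue absorbance at 620 nm. Reporter activity is expressed as fold change over wells that received agonist alone. A well was called cytotoxic when IncuCyte confluency fell below 70% of agonist controls in both mask sets.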
# RAW-Dual [2] = experiment: NF-kB SEAP reporter activity, fold change vs agonist alone; cytotoxicity flag (confluency mask): not cytotoxic; higher = enhanced NF-kB activity
# In short: as §1
# RAW-Dual [3] = experiment: NF-kB SEAP reporter activity, fold change vs agonist alone; cytotoxicity flag (confluency mask): cytotoxic (confluency <70% of control); higher = enhanced NF-kB activity
# In short: as §1
# [4] = library stock concentration (final ~1000-fold dilution): 10 mM, cytotoxicity flag (confluency mask): not cytotoxic, agonist: Imiquimod (TLR7) […]
# [5] = library stock concentration (final ~1000-fold dilution): 10 mM, cytotoxicity flag (confluency mask): not cytotoxic, agonist: MPLA (TLR4) […]
# [6] = agonist: ODN 1826 (TLR9) 0.5 ug/mL
# [7] = agonist: Pam2CSK4 (TLR2/6) 0.1 ug/mL
# [8] = agonist: Pam3CSK4 (TLR2/1) 0.1 ug/mL
# [9] = library stock concentration (final ~1000-fold dilution): 10 mM, cytotoxicity flag (confluency mask): cytotoxic (confluency <70% of control), agonist: Imiquimod (TLR7) […]
# [10] = library stock concentration (final ~1000-fold dilution): 10 mM, cytotoxicity flag (confluency mask): cytotoxic (confluency <70% of control), agonist: MPLA (TLR4) […]
smiles,measurement,setting,value
N#Cc1cnc(Nc2cc(NCC3CNCCO3)c(C(F)(F)F)cn2)cn1 (centres undefined),NF-kB SEAP reporter activity,RAW-Dual [1]; [4],1.66
same,NF-kB SEAP reporter activity,RAW-Dual [1]; [5],0.936
N#Cc1cnc(Nc2cc(NCC3CNCCO3)c(C(F)(F)F)cn2)cn1 (centres undefined) (library stock concentration (final ~1000-fold dilution): 10 mM),NF-kB SEAP reporter activity,RAW-Dual [2]; agonist: LPS (TLR4) 0.1 ug/mL,1.37
same,NF-kB SEAP reporter activity,RAW-Dual [2]; [6],1.25
same,NF-kB SEAP reporter activity,RAW-Dual [2]; [7],1.34
same,NF-kB SEAP reporter activity,RAW-Dual [2]; [8],1.5
CC(C(=O)O)c1ccc(CC2CCCC2=O)cc1 (centres undefined),NF-kB SEAP reporter activity,RAW-Dual [1]; [5],1.05
CC(C(=O)O)c1ccc(CC2CCCC2=O)cc1 (centres undefined) (library stock concentration (final ~1000-fold dilution): 10 mM),NF-kB SEAP reporter activity,RAW-Dual [2]; agonist: LPS (TLR4) 0.1 ug/mL,1.06
same,NF-kB SEAP reporter activity,RAW-Dual [2]; [6],1.03
same,NF-kB SEAP reporter activity,RAW-Dual [2]; [7],1.13
same,NF-kB SEAP reporter activity,RAW-Dual [2]; [8],1.26
CC1c2cccc(O)c2C(=O)C2=C(O)C3(O)C(=O)C(C(N)=O)=C(O)C(N(C)C)C3C(O)C21.CC1c2cccc(O)c2C(=O)C2=C(O)C3(O)C(=O)C(C(N)=O)=C(O)C(N(C)C)C3C(O)C21.CCO.Cl.Cl.O (centres undefined) (library stock concentration (final ~1000-fold dilution): 10 mM),NF-kB SEAP reporter activity,RAW-Dual [2]; agonist: LPS (TLR4) 0.1 ug/mL,1.6
same,NF-kB SEAP reporter activity,RAW-Dual [2]; [6],0.969
same,NF-kB SEAP reporter activity,RAW-Dual [2]; [7],1.26
same,NF-kB SEAP reporter activity,RAW-Dual [2]; [8],0.938
CC1c2cccc(O)c2C(=O)C2=C(O)C3(O)C(=O)C(C(N)=O)=C(O)C(N(C)C)C3C(O)C21.CC1c2cccc(O)c2C(=O)C2=C(O)C3(O)C(=O)C(C(N)=O)=C(O)C(N(C)C)C3C(O)C21.CCO.Cl.Cl.O (centres undefined),NF-kB SEAP reporter activity,RAW-Dual [1]; [4],0.998
same,NF-kB SEAP reporter activity,RAW-Dual [1]; [5],1.13
COC(C(=O)N1Cc2[nH]nc(NC(=O)c3ccc(N4CCN(C)CC4)cc3)c2C1)c1ccccc1 (centres undefined) (library stock concentration (final ~1000-fold dilution): 10 mM),NF-kB SEAP reporter activity,RAW-Dual [2]; agonist: LPS (TLR4) 0.1 ug/mL,0.879
same,NF-kB SEAP reporter activity,RAW-Dual [2]; [6],2.15
same,NF-kB SEAP reporter activity,RAW-Dual [2]; [7],1.67
same,NF-kB SEAP reporter activity,RAW-Dual [2]; [8],1.67
COC(C(=O)N1Cc2[nH]nc(NC(=O)c3ccc(N4CCN(C)CC4)cc3)c2C1)c1ccccc1 (centres undefined),NF-kB SEAP reporter activity,RAW-Dual [1]; [4],2.05
same,NF-kB SEAP reporter activity,RAW-Dual [1]; [5],1.15
CCS(=O)(=O)O.COC(=O)c1ccc2c(c1)NC(=O)/C2=C(\Nc1ccc(N(C)C(=O)CN2CCN(C)CC2)cc1)c1ccccc1 (library stock concentration (final ~1000-fold dilution): 10 mM),NF-kB SEAP reporter activity,RAW-Dual [2]; agonist: LPS (TLR4) 0.1 ug/mL,2.02
same,NF-kB SEAP reporter activity,RAW-Dual [2]; [6],0.222
same,NF-kB SEAP reporter activity,RAW-Dual [2]; [7],1.61
same,NF-kB SEAP reporter activity,RAW-Dual [2]; [8],1.31
CCS(=O)(=O)O.COC(=O)c1ccc2c(c1)NC(=O)/C2=C(\Nc1ccc(N(C)C(=O)CN2CCN(C)CC2)cc1)c1ccccc1,NF-kB SEAP reporter activity,RAW-Dual [1]; [5],2.25
CONC(=O)c1ccccc1Nc1cc(Nc2cc(C)nn2C(C)C)ncc1Cl,NF-kB SEAP reporter activity,RAW-Dual [1]; [4],1.18
same,NF-kB SEAP reporter activity,RAW-Dual [1]; [5],0.931
CONC(=O)c1ccccc1Nc1cc(Nc2cc(C)nn2C(C)C)ncc1Cl (library stock concentration (final ~1000-fold dilution): 10 mM),NF-kB SEAP reporter activity,RAW-Dual [2]; agonist: LPS (TLR4) 0.1 ug/mL,0.82
same,NF-kB SEAP reporter activity,RAW-Dual [2]; [6],1.73
same,NF-kB SEAP reporter activity,RAW-Dual [2]; [7],0.957
same,NF-kB SEAP reporter activity,RAW-Dual [2]; [8],1.25
CS(=O)(=O)O.CS(=O)(=O)O.Cc1ccc(C(=O)Nc2ccc(CN3CCN(C)CC3)c(C(F)(F)F)c2)cc1C#Cc1cnc2[nH]ncc2c1,NF-kB SEAP reporter activity,RAW-Dual [1]; [9],0.129
same,NF-kB SEAP reporter activity,RAW-Dual [1]; [10],0.214
CS(=O)(=O)O.CS(=O)(=O)O.Cc1ccc(C(=O)Nc2ccc(CN3CCN(C)CC3)c(C(F)(F)F)c2)cc1C#Cc1cnc2[nH]ncc2c1 (library stock concentration (final ~1000-fold dilution): 10 mM),NF-kB SEAP reporter activity,RAW-Dual [3]; agonist: LPS (TLR4) 0.1 ug/mL,0.191
same,NF-kB SEAP reporter activity,RAW-Dual [3]; [6],0.183
same,NF-kB SEAP reporter activity,RAW-Dual [3]; [7],0.0586
same,NF-kB SEAP reporter activity,RAW-Dual [3]; [8],0.138
CC(=O)NC1C(NC(=N)N)C=C(C(=O)O)OC1C(O)C(O)CO (centres undefined),NF-kB SEAP reporter activity,"RAW-Dual [1]; library stock concentration (final ~1000-fold dilution): 10 mM water, cytotoxicity flag (confluency mask): not cytotoxic, agonist: Imiquimod (TLR7) […]",0.917
same,NF-kB SEAP reporter activity,"RAW-Dual [1]; library stock concentration (final ~1000-fold dilution): 10 mM water, cytotoxicity flag (confluency mask): not cytotoxic, agonist: MPLA (TLR4) […]",1.03
CC(=O)NC1C(NC(=N)N)C=C(C(=O)O)OC1C(O)C(O)CO (centres undefined) (library stock concentration (final ~1000-fold dilution): 10 mM water),NF-kB SEAP reporter activity,RAW-Dual [2]; agonist: LPS (TLR4) 0.1 ug/mL,1.37
same,NF-kB SEAP reporter activity,RAW-Dual [2]; [6],1.17
same,NF-kB SEAP reporter activity,RAW-Dual [2]; [7],1.19
same,NF-kB SEAP reporter activity,RAW-Dual [2]; [8],1.07
CCC1(O)C(=O)OCc2c1cc1n(c2=O)Cc2cc3c(CN(C)C)c(O)ccc3nc2-1.Cl (centres undefined) (library stock concentration (final ~1000-fold dilution): 10 mM),NF-kB SEAP reporter activity,RAW-Dual [3]; agonist: LPS (TLR4) 0.1 ug/mL,2.73
same,NF-kB SEAP reporter activity,RAW-Dual [3]; [6],2.71
same,NF-kB SEAP reporter activity,RAW-Dual [3]; [7],0.868
same,NF-kB SEAP reporter activity,RAW-Dual [3]; [8],1.35
CCC1(O)C(=O)OCc2c1cc1n(c2=O)Cc2cc3c(CN(C)C)c(O)ccc3nc2-1.Cl (centres undefined),NF-kB SEAP reporter activity,RAW-Dual [1]; [9],2.3
same,NF-kB SEAP reporter activity,RAW-Dual [1]; [10],2.16
C=CCc1ccc(O)c(OC)c1,NF-kB SEAP reporter activity,RAW-Dual [1]; [4],0.972
same,NF-kB SEAP reporter activity,RAW-Dual [1]; [5],1.06
C=CCc1ccc(O)c(OC)c1 (library stock concentration (final ~1000-fold dilution): 10 mM),NF-kB SEAP reporter activity,RAW-Dual [2]; agonist: LPS (TLR4) 0.1 ug/mL,1.17
same,NF-kB SEAP reporter activity,RAW-Dual [2]; [6],0.728
same,NF-kB SEAP reporter activity,RAW-Dual [2]; [7],0.805
same,NF-kB SEAP reporter activity,RAW-Dual [2]; [8],0.816
COCCOc1nc(-c2ccc(Cl)c(Cl)c2)n(-c2ccc(NC(=O)CCl)cc2)n1 (library stock concentration (final ~1000-fold dilution): 10 mM),NF-kB SEAP reporter activity,RAW-Dual [2]; agonist: LPS (TLR4) 0.1 ug/mL,0.196
same,NF-kB SEAP reporter activity,RAW-Dual [2]; [6],0.18
same,NF-kB SEAP reporter activity,RAW-Dual [2]; [7],0.0849
same,NF-kB SEAP reporter activity,RAW-Dual [2]; [8],0.149
same,NF-kB SEAP reporter activity,RAW-Dual [3]; agonist: LPS (TLR4) 0.1 ug/mL,0.322
same,NF-kB SEAP reporter activity,RAW-Dual [3]; [6],0.201
same,NF-kB SEAP reporter activity,RAW-Dual [3]; [7],0.075
same,NF-kB SEAP reporter activity,RAW-Dual [3]; [8],0.175
COCCOc1nc(-c2ccc(Cl)c(Cl)c2)n(-c2ccc(NC(=O)CCl)cc2)n1,NF-kB SEAP reporter activity,RAW-Dual [1]; [9],0.149
same,NF-kB SEAP reporter activity,RAW-Dual [1]; [10],0.267
same,NF-kB SEAP reporter activity,RAW-Dual [1]; [4],0.139
same,NF-kB SEAP reporter activity,RAW-Dual [1]; [5],0.252
Cc1cc(C)c(CN2CCc3c(Cl)cc(-c4c(C)noc4C)c(Cl)c3C2=O)c(=O)[nH]1,NF-kB SEAP reporter activity,RAW-Dual [1]; [4],1.24
same,NF-kB SEAP reporter activity,RAW-Dual [1]; [5],1.64
Cc1cc(C)c(CN2CCc3c(Cl)cc(-c4c(C)noc4C)c(Cl)c3C2=O)c(=O)[nH]1 (library stock concentration (final ~1000-fold dilution): 10 mM),NF-kB SEAP reporter activity,RAW-Dual [2]; agonist: LPS (TLR4) 0.1 ug/mL,2.16
same,NF-kB SEAP reporter activity,RAW-Dual [2]; [6],1.51
same,NF-kB SEAP reporter activity,RAW-Dual [2]; [7],0.917
same,NF-kB SEAP reporter activity,RAW-Dual [2]; [8],0.98
CC(C)(C)CC1NC(C(=O)NC2CCC(O)CC2)C(c2cccc(Cl)c2F)C12C(=O)Nc1cc(Cl)ccc12 (centres undefined) (library stock concentration (final ~1000-fold dilution): 10 mM),NF-kB SEAP reporter activity,RAW-Dual [3]; agonist: LPS (TLR4) 0.1 ug/mL,3.05
same,NF-kB SEAP reporter activity,RAW-Dual [3]; [6],2.82
same,NF-kB SEAP reporter activity,RAW-Dual [3]; [7],0.884
same,NF-kB SEAP reporter activity,RAW-Dual [3]; [8],1.21
CC(C)(C)CC1NC(C(=O)NC2CCC(O)CC2)C(c2cccc(Cl)c2F)C12C(=O)Nc1cc(Cl)ccc12 (centres undefined),NF-kB SEAP reporter activity,RAW-Dual [1]; [9],1.55
same,NF-kB SEAP reporter activity,RAW-Dual [1]; [10],2.25
O=C1NC(=O)C(c2ccccc2[N+](=O)[O-])=C1Nc1ccc(O)c(Cl)c1,NF-kB SEAP reporter activity,RAW-Dual [1]; [4],0.83
same,NF-kB SEAP reporter activity,RAW-Dual [1]; [5],1.19
O=C1NC(=O)C(c2ccccc2[N+](=O)[O-])=C1Nc1ccc(O)c(Cl)c1 (library stock concentration (final ~1000-fold dilution): 10 mM),NF-kB SEAP reporter activity,RAW-Dual [2]; agonist: LPS (TLR4) 0.1 ug/mL,1.16
same,NF-kB SEAP reporter activity,RAW-Dual [2]; [6],1.56
same,NF-kB SEAP reporter activity,RAW-Dual [2]; [7],1.25
same,NF-kB SEAP reporter activity,RAW-Dual [2]; [8],1.77
NC(=O)c1cnc2[nH]ccc2c1NC1C2CC3CC1CC(O)(C3)C2 (centres undefined) (library stock concentration (final ~1000-fold dilution): 10 mM),NF-kB SEAP reporter activity,RAW-Dual [2]; agonist: LPS (TLR4) 0.1 ug/mL,0.305
same,NF-kB SEAP reporter activity,RAW-Dual [2]; [6],0.398
same,NF-kB SEAP reporter activity,RAW-Dual [2]; [7],0.242
same,NF-kB SEAP reporter activity,RAW-Dual [2]; [8],0.31
NC(=O)c1cnc2[nH]ccc2c1NC1C2CC3CC1CC(O)(C3)C2 (centres undefined),NF-kB SEAP reporter activity,RAW-Dual [1]; [4],0.334
same,NF-kB SEAP reporter activity,RAW-Dual [1]; [5],0.347

# — the supplement of paper PMC10037445
